# Test results: PubChem BioAssay AID720708 (National Center for Advancing Translational Sciences (NCATS), 2013)
# The whole screen tested about 360,000 compounds, of which about 660 (0.18%) were called active. The shares of active, inactive and inconclusive entries below differ from those in the screen. Calls follow the shape of the dose curve; as a rule, active = well fitted inhibition curve with a large enough effect; inconclusive = small, poorly fitted or top-dose-only effect; inactive = no such curve, though single readings can be large or run the other way. No potency is given beside an inconclusive call; the fits are too rough.
# Target: Rap guanine nucleotide exchange factor 4 (Homo sapiens) (UniProt Q8WZA2)
# Assay: qHTS for Antagonist of cAMP-regulated guanine nucleotide exchange factor 2 (EPAC2): primary screen; also: nearly all actives have a fitted effect of over 45% in size
# Conditions: EPAC2 GEF exchange of Rap1B-BODIPY-GDP, fluorescence; series mostly up to 114 µM
# Potency is read from the fitted curve at half-maximal effect; tags tell the direction and shape of the fitted curve.
# UniProt Q8WZA2, sequence (Q8WZA2 whole entry, looked up): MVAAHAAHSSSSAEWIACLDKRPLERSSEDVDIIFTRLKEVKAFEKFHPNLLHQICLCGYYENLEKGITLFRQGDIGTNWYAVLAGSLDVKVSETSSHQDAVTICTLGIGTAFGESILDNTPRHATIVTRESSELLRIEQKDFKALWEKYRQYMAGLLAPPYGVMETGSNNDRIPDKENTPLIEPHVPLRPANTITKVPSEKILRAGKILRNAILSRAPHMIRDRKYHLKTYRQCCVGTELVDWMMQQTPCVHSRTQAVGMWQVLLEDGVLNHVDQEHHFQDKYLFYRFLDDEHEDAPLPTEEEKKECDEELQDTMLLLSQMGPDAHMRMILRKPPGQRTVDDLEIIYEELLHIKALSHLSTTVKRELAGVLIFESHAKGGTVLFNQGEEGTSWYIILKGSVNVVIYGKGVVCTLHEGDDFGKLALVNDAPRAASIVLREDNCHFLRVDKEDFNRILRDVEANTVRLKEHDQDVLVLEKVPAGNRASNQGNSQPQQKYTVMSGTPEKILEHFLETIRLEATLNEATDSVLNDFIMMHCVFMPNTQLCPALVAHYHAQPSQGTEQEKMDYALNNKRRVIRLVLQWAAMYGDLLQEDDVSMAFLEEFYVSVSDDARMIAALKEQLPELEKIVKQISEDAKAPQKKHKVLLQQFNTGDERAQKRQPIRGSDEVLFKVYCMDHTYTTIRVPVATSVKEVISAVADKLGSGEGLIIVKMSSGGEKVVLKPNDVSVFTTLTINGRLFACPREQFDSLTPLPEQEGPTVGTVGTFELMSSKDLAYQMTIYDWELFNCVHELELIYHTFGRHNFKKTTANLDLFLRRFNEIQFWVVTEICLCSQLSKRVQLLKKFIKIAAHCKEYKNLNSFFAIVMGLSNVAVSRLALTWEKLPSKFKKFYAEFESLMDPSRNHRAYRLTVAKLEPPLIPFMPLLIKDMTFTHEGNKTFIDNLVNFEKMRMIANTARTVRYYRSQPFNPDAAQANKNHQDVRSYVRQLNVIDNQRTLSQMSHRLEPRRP
row,Structure (SMILES),Potency
1,CCN(c1ccccc1)c1ncnc2c1cnn2-c1ccccc1,inactive
2,Cc1cc(NC(=O)COC(=O)C(C)Oc2ccc(Cl)cc2Cl)no1 (stereo not given),"inconclusive [inhibitor, partial curve]"
3,CCn1c(CNC(=O)c2ccc(Cl)cc2)nnc1SCC(=O)NC1=NCCS1,inactive
4,CCCCn1nnnc1C(c1cc2ccccc2o1)N1CCN(c2ncccc2C#N)CC1 (stereo not given),"inconclusive [inhibitor, full curve]"
5,COCCn1c(SCc2ccccc2F)nc2ccccc2c1=O,"inconclusive [inhibitor, full curve]"
6,C=CCNC(=O)CN1CCC(c2nc3cc(C)c(C)cc3[nH]2)CC1,inactive
7,O=C(c1cc2ncc(Br)cn2n1)N1CCN(C(=O)c2ccco2)CC1,inactive
8,COc1ccc(/C=C2\Oc3cc(OCC(=O)N4CCC(C(=O)O)CC4)ccc3C2=O)c(OC)c1OC,"inconclusive [inhibitor, partial curve]"
9,CC(C)(C)NC(=O)C(c1ccncc1)n1c(=O)c(-c2cc3ccccc3[nH]2)nc2ccccc21 (stereo not given),"inconclusive [inhibitor, full curve]"
10,O=C(C(=Cc1ccc(F)cc1)c1ccccc1)c1ccc(O)cc1,"inconclusive [inhibitor, partial curve]"
11,COc1ccc([C@H]2CC(=O)C=C(c3cc(F)ccc3OC)C2)cc1,"inconclusive [inhibitor, single point]"
12,CCCc1c(OCCCOc2ccc(OCC(=O)O)cc2)ccc(C(C)=O)c1O,"inconclusive [inhibitor, partial curve]"
13,CCc1nc(SCC(=O)Nc2cc(C)ccc2OC)c2c(C)c(C)sc2n1,"inconclusive [inhibitor, partial curve]"
14,COc1ccc([C@H]2CC(=O)C=C(c3ccc(OC)cc3OC)C2)cc1,"inconclusive [inhibitor, full curve]"
15,O=C(c1ccccc1)c1nn(-c2ccccc2)c(=O)cc1-c1ccccc1,"inconclusive [inhibitor, partial curve]"
16,O=S(=O)(c1cnc(Cl)c(Cl)c1)N1CCc2ccccc21,inactive
17,O=C(/C=C/c1ccc(OCc2cccc(Cl)c2)cc1)N1CCOCC1,inactive
18,CCC1(c2ccccc2)NC(=O)N(CC(=O)Nc2ccc(OC)nc2)C1=O (stereo not given),inactive
19,CC(C)(C)c1csc(NC(=O)CSC2=NCCS2)n1,"inconclusive [inhibitor, partial curve]"
20,Cc1ccc(C(=O)ONc2ccc(N=NC(=O)c3ccccc3O)cc2)cc1,"inconclusive [inhibitor, full curve]"
21,Cc1ccc(S(=O)(=O)Nc2cccc3ncccc23)cc1,inactive
22,O=C1CC(c2ccccc2)C(c2ccccc2)=NN1 (stereo not given),"inconclusive [inhibitor, full curve]"
23,CCn1c(O)c(C=Nc2ccccc2)sc1=S,inactive
24,CC1(c2ccccc2)CC(C)(C)N2C(=O)C(=O)c3cccc1c32 (stereo not given),"inconclusive [inhibitor, partial curve, poor fit]"

row,Structure (SMILES),Potency
1,CCN(CC)CCCNC(=O)c1cc(Nc2ccc(OC)cc2)nc2ccccc12,inactive
2,CC1(C(=O)NS(=O)(=O)c2cccc(C#N)c2)CCN1C(=O)c1ccc(C2CCCCC2)cc1 (stereo not given),inactive
3,CCOC(=O)/C=C/C(=O)Nc1ccc(S(=O)(=O)Nc2cc(C)on2)cc1,"inconclusive [inhibitor, single point]"
4,COc1ccc(Cl)cc1NC(=O)C(C)N1CCN(C/C=C/c2ccccc2)CC1 (stereo not given),inactive
5,CCc1nc2c(OCc3ccc(F)cc3)cccn2c1N(C)C(=O)CC(C)C,"inconclusive [inhibitor, partial curve, poor fit]"
6,COc1ccc(C(CNC(=O)c2ccc(OCc3csc(C)n3)cc2)N2CCCC2)cc1 (stereo not given),inactive
7,COc1ccc(NC(=O)CSCC(=O)Nc2cccc(S(=O)(=O)N3CCCCCC3)c2)cc1,"inconclusive [inhibitor, single point]"
8,CCC[C@H]1CCCC/C=C\CCCC(=O)OCCN1C(=O)OC(C)(C)C,"inconclusive [inhibitor, full curve, poor fit]"
9,O=C(Nc1ccccc1N1CCCC1)c1cc(=O)[nH]c2ccccc12,inactive
10,O=S(=O)(c1ccc2[nH]ccc2c1)N1CCCCCC1,"inconclusive [inhibitor, partial curve]"
11,CCNc1cccc2c1C(=O)N(C)C2=O,inactive
12,Cc1oc2cc([N+](=O)[O-])c(O)c([N+](=O)[O-])c2c1C(=O)c1ccc(Br)cc1,"inconclusive [inhibitor, partial curve]"
13,Cc1ccc([N+](=O)[O-])cc1NC(=O)CN(C1CCCCC1)S(=O)(=O)c1ccc(Cl)cc1,"inconclusive [inhibitor, single point]"
14,COc1ccc(C2CC(=O)c3ccccc3O2)cc1 (stereo not given),"inconclusive [inhibitor, partial curve]"
15,CC(NC(=O)CN(C)S(=O)(=O)c1ccc(F)cc1)C1CC2CCC1C2 (stereo not given),"inconclusive [inhibitor, single point]"
16,CSc1nc(-c2ccc(Cl)cc2Cl)[nH]c(=O)c1C#N,"inconclusive [inhibitor, partial curve]"
17,CCOC(=O)CSc1nnc(-c2ccoc2C)n1-c1ccc(OCC)cc1,inactive
18,C#CC1(NC(=O)NS(=O)(=O)c2ccc(C)cc2)CCCCC1,"inconclusive [inhibitor, single point]"
19,COc1ccc(S(=O)(=O)N2CCCCC2c2cc(C(=O)NCc3ccc(F)cc3)no2)cc1 (stereo not given),"inconclusive [inhibitor, full curve]"
20,COc1cccc(/C=N/NC(=O)c2cc3cc([N+](=O)[O-])ccc3s2)c1O,"inconclusive [inhibitor, partial curve]"
21,O=C1C(=C(O)c2ccccc2)C(=O)c2ccccc21,inactive
22,CCC(Oc1ccc(Br)cc1Cl)C(=O)Nc1nnc(C2CC2)s1 (stereo not given),"inconclusive [inhibitor, partial curve]"
23,CC1Cc2ccccc2N1C(=O)CSc1ncc(-c2ccc(F)cc2)n1C (stereo not given),"inconclusive [inhibitor, single point]"
24,COc1cc(O)c(C(CC(=O)N2CCCC2)c2ccc3c(c2)OCO3)c(OC)c1 (stereo not given),"inconclusive [inhibitor, full curve]"

row,Structure (SMILES),Potency
1,CN(C)c1ccc(C(=O)N(Cc2ccccc2)Cc2ccccc2)cc1,"inconclusive [inhibitor, partial curve]"
2,COc1ccc(-c2csc(C(C)(O)c3ccccc3)n2)cc1 (stereo not given),"inconclusive [inhibitor, full curve, poor fit]"
3,Cc1cccn2c(=O)c3cc(C(=O)NC4CCCCC4)c(=N)n(Cc4ccccc4)c3nc12,"inconclusive [inhibitor, partial curve]"
4,CN(C)C(=S)Oc1ccccc1-c1ccccc1OC(=S)N(C)C,"inconclusive [inhibitor, full curve]"
5,COC(=O)c1sc(S(=O)(=O)N2CCCCC2C)c(C(=O)OC)c1C (stereo not given),"inconclusive [inhibitor, full curve]"
6,COc1ccc(C=C2C(=O)OC(C)(C)OC2=O)cc1OC,inactive
7,COc1ccccc1NS(=O)(=O)c1cc(C(=O)N2CCCCCC2)ccc1C,"inconclusive [inhibitor, full curve, poor fit]"
8,Cc1nc(N2CCCCC2)nc(N2CCCCC2)c1C=O,"inconclusive [inhibitor, partial curve]"
9,CC(C)(C)c1ccc(S(=O)(=O)NC(=O)C2(C)CCN2C(=O)Cc2ccc(-c3ccccc3)cc2)cc1 (stereo not given),"inconclusive [inhibitor, partial curve]"
10,CC1(C)Cc2c(sc(NC(=O)c3ccco3)c2C(=O)O)CO1,inactive
11,NS(=O)(=O)c1ccc2c(c1)C(=NO)c1cc(S(N)(=O)=O)ccc1-2,"inconclusive [inhibitor, partial curve]"
12,Cc1ccc(CNc2ccc(O)cc2)cc1,"inconclusive [inhibitor, partial curve]"
13,CC(C)(C)c1ccc(-c2nc3n(c(=O)c2C#N)CCS3)cc1,"inconclusive [inhibitor, partial curve]"
14,COc1ccc(/C=C/C(=O)NNc2cc(=O)n(C)c(=O)n2C)cc1OC,inactive
15,CC(=O)N1c2ccc(S(=O)(=O)NCCC(=O)Nc3cccc(Cl)c3)cc2CC1C (stereo not given),inactive
16,CCOC(=O)c1c(C2CC2)csc1NC(C)=O,"inconclusive [inhibitor, partial curve]"
17,Cc1onc(-c2ccccc2)c1C(=O)N1CCc2ccccc21,"inconclusive [inhibitor, single point]"
18,O=C(CSc1ncnc2[nH]ncc12)Nc1cccc(Oc2ccccc2)c1,inactive
19,CCN(CC)CCNC(=O)c1nn(-c2ccc(Cl)cc2)c2c1CCc1cc(OC)ccc1-2,inactive
20,COc1ccc(-c2nc3c(C)cc(Br)cn3c2CC(C)(C)C)cc1OC,"inconclusive [inhibitor, partial curve]"
21,O=C(Nc1ccc2ccccc2c1)c1ccccc1O,"inconclusive [inhibitor, single point]"
22,CCO[C@@H]1OC(C(=O)N2CCN(Cc3ccc4c(c3)OCO4)CC2)=C[C@H](C2CCCCC2)[C@H]1CCCO,"inconclusive [inhibitor, single point]"
